44 compounds from publication PMC4336329 (PLoS ONE, 2015) can be followed below.

Structures are written as SMILES. Hit rate of the full screen: of about 310,000 compounds, about 14,000 (4.5%) showed an effect of 50% or more. The effect is printed as a negative number. This is one part of the list.
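Further: peak tail current of the secondary pulse compared with the same well before compound.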

The target of the assay is human ether-à-go-go-related gene (hERG) potassium channel (human, UniProt Q12809). Description: primary screen, population patch clamp on CHO cells stably expressing hERG.
Sequence of human ether-à-go-go-related gene (hERG) potassium channel (Q12809 whole entry, looked up): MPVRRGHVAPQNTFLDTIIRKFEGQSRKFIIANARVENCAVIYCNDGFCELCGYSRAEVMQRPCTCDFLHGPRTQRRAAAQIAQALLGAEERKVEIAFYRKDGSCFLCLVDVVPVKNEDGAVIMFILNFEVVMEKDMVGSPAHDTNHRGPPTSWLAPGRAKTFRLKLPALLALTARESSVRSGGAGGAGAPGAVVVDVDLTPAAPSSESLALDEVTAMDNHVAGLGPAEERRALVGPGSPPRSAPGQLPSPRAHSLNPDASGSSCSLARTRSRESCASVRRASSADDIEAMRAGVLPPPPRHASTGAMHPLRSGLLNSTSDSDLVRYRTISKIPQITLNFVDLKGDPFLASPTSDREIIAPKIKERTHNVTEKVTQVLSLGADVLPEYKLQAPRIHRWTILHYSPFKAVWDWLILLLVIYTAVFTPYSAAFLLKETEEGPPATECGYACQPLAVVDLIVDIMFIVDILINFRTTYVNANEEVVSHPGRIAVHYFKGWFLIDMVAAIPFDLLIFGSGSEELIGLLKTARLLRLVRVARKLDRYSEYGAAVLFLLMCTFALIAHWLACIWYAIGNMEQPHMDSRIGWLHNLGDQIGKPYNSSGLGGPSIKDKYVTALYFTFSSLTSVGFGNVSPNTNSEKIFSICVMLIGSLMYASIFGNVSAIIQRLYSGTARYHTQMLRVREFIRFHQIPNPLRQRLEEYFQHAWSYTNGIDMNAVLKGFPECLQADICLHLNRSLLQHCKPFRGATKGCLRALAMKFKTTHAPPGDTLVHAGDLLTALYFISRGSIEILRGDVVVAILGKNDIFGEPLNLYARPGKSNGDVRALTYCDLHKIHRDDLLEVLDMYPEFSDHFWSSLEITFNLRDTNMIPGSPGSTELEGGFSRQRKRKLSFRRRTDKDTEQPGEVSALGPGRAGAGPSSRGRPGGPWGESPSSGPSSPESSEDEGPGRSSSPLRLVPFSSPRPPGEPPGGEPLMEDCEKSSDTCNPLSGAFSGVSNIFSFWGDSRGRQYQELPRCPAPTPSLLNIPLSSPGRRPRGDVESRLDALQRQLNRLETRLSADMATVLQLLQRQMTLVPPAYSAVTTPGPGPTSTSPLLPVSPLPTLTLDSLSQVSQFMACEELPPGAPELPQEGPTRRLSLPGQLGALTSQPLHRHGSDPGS
As to `CC1(C)Cc2c(sc3c2c(N)nc(=S)n3Cc2ccccc2)CO1`, the “hERG current change (%, negative = inhibition) at 10uM” value is -40.5%.
Next, `O=C(c1ccccc1)c1ccc(CN2C(=O)c3ccccc3C2=O)o1`: -28%.
Regarding `CCOc1ccccc1NC(=O)CNS(=O)(=O)c1ccc2nc(C)sc2c1`, the “hERG current change (%, negative = inhibition) at 10uM” value is listed as 19%.
In the case of `O=C(/C=C/c1ccc(Cl)cc1)NCc1cccs1`, the “hERG current change (%, negative = inhibition) at 10uM” value was -1.13%.
Next, `CCOC(=O)N1CCC(NC(=O)CCc2c(C)nc3c(c(C)nn3C(C)(C)C)c2C)CC1`: -6.5%; `COc1ccc(CNC(=O)COC(=O)CCC(=O)c2cccs2)cc1`: -16.3%.
Consider `CCn1c(=S)ccc2ccc(OC)cc21`, for which the “hERG current change (%, negative = inhibition) at 10uM” value is -0.453%.
The value for `COCc1nnc(NC(=O)c2ccc(S(=O)(=O)N3CCCCCC3)cc2)o1` was -21.2%; that for `Fc1ccc2c(c1)C(c1cccnc1)=NNC(c1cccs1)=N2` was -23.1%; that for `CCOc1ccc(NC(=S)NCc2cccnc2)cc1` was -7.03%.
The value for `O=C(CC1C(=O)NCCN1Cc1cccc(C(F)(F)F)c1)NCCCOc1cccnc1` (centres unmarked) was -3.59%; that for `CC1CCCC(NC(=O)c2ccc3c(c2)N(Cc2ccccc2)C(=O)CS3=O)C1C` (centres unmarked) was 10.6%; that for `O=C(Cc1ccc(Cl)cc1)NCCN1CCN(C(=O)Cc2ccc(Cl)cc2)CC1` was -53.4%.
The value for `CC(C)OCCCNC(=O)c1cc(S(=O)(=O)N2CCc3ccccc32)cn1C` was -13.2%.
For the compound `CCCCC[n+]1ccn(-c2nc3ccccc3nc2[N-]S(=O)(=O)c2ccc(C)cc2)c1`, the “hERG current change (%, negative = inhibition) at 10uM” value is recorded as -6.35%.
Next, `Nn1cc(-c2ccccc2)nc1SCC(=O)NCC(F)(F)F`: 14.7%.
On to `COc1ccc(-c2csc3nc(-c4ccccc4)oc(=O)c23)cc1OC`, for which the “hERG current change (%, negative = inhibition) at 10uM” value amounted to 14.3%.
Next, `O=c1cc(CSc2ccc(Cl)cc2)nc(-c2ccncc2)[nH]1`: 1.72%; `O=C(c1cc2n(n1)C(C(F)(F)F)CC(c1ccco1)N2)N1CCc2ccccc2C1` (centres unmarked): -16.6%; `CN(C(=O)COC(=O)c1cccc(S(=O)(=O)N2CCOCC2)c1)C1CCS(=O)(=O)C1` (centres unmarked): 13.7%.
Next, `Cc1ccc(-c2nn(-c3ccccc3)cc2/C=C/C(=O)O)o1`: 6.87%; `O=C(NCCCN1CCOCC1)c1cnn2c(-c3ccccc3)cc(-c3ccccc3)nc12`: -41.3%; `CCOC(=O)/C=c1\s/c(=C\c2c(OCC)ccc3ccccc23)c(=O)n1CC(=O)NCC1CCCO1` (centres unmarked): 4.96%.
The value for `NC(=O)CN1C(=O)NC(c2ccccc2)(c2ccccc2)C1=O` was 18.2%; that for `O=C(N/N=C/C=C/c1ccccc1)C(O)c1ccccc1` (centres unmarked) was 2.87%; that for `COc1ccc(CCN2CC(C(=O)Nc3ccccc3F)CC2=O)cc1OC` (centres unmarked) was -12.2%.
In the case of `Clc1ccc(-n2ncc3c(N4CCCC4)ncnc32)cc1`, the “hERG current change (%, negative = inhibition) at 10uM” value is given as -2.62%.
Next, `O=C(c1ccc2[nH]c3c(c2c1)CCCC3)N1CCN(c2ccc(F)cc2)CC1`: -12.4%; `O=C(c1ccc(N2C(=O)CCC2=O)cc1)N1CCN(c2ccccc2)CC1`: 8.26%; `COC(=O)C(CC(C)C)NC(=O)/C=C/c1ccccc1Cl` (centres unmarked): 10.1%.
The value for `COc1ccc(/C=N/Nc2cc(OC)ncn2)cc1` was 15.6%; that for `S=C(NCCc1ccccc1)NCCc1cnc[nH]1` was -4.01%.
The value for `Nc1nnc(SCc2ccc3c(c2)OCO3)s1` was 0.437%; that for `COc1ccccc1CC(Cc1nc2ccccc2[nH]1)c1nc2ccccc2[nH]1` (centres unmarked) was -41.1%; that for `CC(C)(C)NC(=O)CSc1nc(-c2ccccc2)c(-c2ccccc2)[nH]1` was -13.1%.
Regarding `O=C(CSc1nc2ccccc2c(=O)n1-c1ccc(F)cc1)NC1CC1`, the “hERG current change (%, negative = inhibition) at 10uM” value is reported as -9.4%.
The value for `CC(C)(C)N(Cc1cc2ccccc2[nH]c1=O)C(=O)c1cccc([N+](=O)[O-])c1` was 6.69%; that for `CSc1ccccc1NC(=O)CN(C)C(=O)c1c(C)nn(Cc2ccccc2)c1C` was -24.1%.
As for `CC(=O)N1CCN(CC(O)COc2ccc(OCc3ccccc3)cc2)CC1` (centres unmarked), the “hERG current change (%, negative = inhibition) at 10uM” value is given as -17.7%.
Take `Cc1nc(C)n(C(Oc2ccc(Cl)cc2Cl)C(=O)C(C)(C)C)n1` (centres unmarked): the “hERG current change (%, negative = inhibition) at 10uM” value is recorded as -1.62%.
The value for `COc1ccc(OC)c(NC(=O)C(=O)NNC(=O)COc2ccc(Br)cc2C)c1` was 18.4%.
Take `Cc1cc(=O)n(CCC(=O)O)c2ccccc12`: the “hERG current change (%, negative = inhibition) at 10uM” value is given as 10.7%.
`COC(=O)/C(=C\C=C\c1ccccc1)NC(=O)c1ccccc1`: the “hERG current change (%, negative = inhibition) at 10uM” value is recorded as 8.85%.
`NS(=O)(=O)c1ccc(NC(=O)COC(=O)CCc2ccccc2)cc1`: the “hERG current change (%, negative = inhibition) at 10uM” value is 21.3%.
